# From the supplement of paper PMC10126150
# Sequences with one replicate were seen in a single cluster, so their values are uncertain.
# Tested on: ATP
# Assay: switch fluorescence ratio, 500 uM ATP over buffer (Cy3 cluster intensity, sum of 5 cycles each) (fold (ratio)); higher = stronger signal-on switching upon ATP binding; sequences stand for … in TCGTCGGCAGCGTCAGATGTGTATAAGAGACAGTTTTTTTTTTTTTTTTTTTTTTTTT…TC
# Settings: aptamer strand: ATP DNA aptamer (quencher-CACCTGGGGGAGTATTGCGGAGGAAGG + anchor), 100 nM annealed; ATP concentration: 500 uM; one replicate
# Procedure, shortened: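 Clusters carrying Cy3-labelled switching strands on a modified Illumina MiSeq flow-cell were annealed to 100 nM quencher-labelled ATP aptamer and imaged in selection buffer. They were imaged again after 15 min with 500 uM ATP at 22 °C, over five buffer/ATP cycles with NaOH stripping and re-annealing in between. For each cluster, the fluorescence ratio is the summed Cy3 intensity of the target cycles divided by that of the buffer cycles, averaged per switch-domain sequence. Clusters outside 100-1000 RFU were left out.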
# 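Further: ATP exposure 15 min at 22 °C before imaging.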
row,Sequence,switch fluorescence ratio
1,GGGCTTAGGT,1.01
2,GGGCTTGTTA,0.991
3,GGGCTTTTGA,0.984
4,GGGGAACGTC,0.99
5,GGGGAAGCCC,0.984
6,GGGGACTCAG,1.04
7,GGGGACTCGC,1.01
8,GGGGAGAATT,1.01
9,GGGGAGATCG,1.1
10,GGGGAGCACC,1.05
11,GGGGAGCTGC,0.92
12,GGGGAGTCC,1
13,GGGGATATTG,0.977
14,GGGGATCTCG,1.01
15,GGGGATTC,1
16,GGGGATTTAC,0.991
17,GGGGCAAATG,1
18,GGGGCACACG,0.951
19,GGGGCCGACG,0.984
20,GGGGCCTTGA,1.03
21,GGGGCGCGCA,1.03
22,GGGGCGTTAA,1.02
23,GGGGCTCGTA,1.05
24,GGGGCTGATG,1.02
25,GGGGGCGACA,1.03
26,GGGGGTCCAC,0.981

row,Sequence,switch fluorescence ratio
1,GGGGGTCCCC,1.03
2,GGGGGTGCA,0.984
3,GGGGTAATTA,0.985
4,GGGGTATAAC,0.988
5,GGGGTCATAC,1.04
6,GGGGTCATG,0.982
7,GGGGTCCCGG,0.996
8,GGGGTGTCAG,0.994
9,GGGGTGTCCC,0.972
10,GGGTAACCGT,0.965
11,GGGTAACTCT,0.971
12,GGGTACGTAA,1.03
13,GGGTAGAGGC,1.04
14,GGGTATCGCC,0.993
15,GGGTATTCCC,0.974
16,GGGTATTCTT,0.977
17,GGGTATTTCG,1.06
18,GGGTCAACGG,0.992
19,GGGTCATTAG,0.988
20,GGGTCCAGGT,1.11
21,GGGTCCCAAA,1.01
22,GGGTCCGATA,0.998
23,GGGTCCGTGT,1.03
24,GGGTCGATGA,0.972
25,GGGTCGCAGT,1.04
26,GGGTCGTCCG,1.01

row,Sequence,switch fluorescence ratio
1,GGGTCTAGCA,0.998
2,GGGTCTGAAA,1.05
3,GGGTGAAGCG,0.983
4,GGGTGACACA,0.89
5,GGGTGACTAC,1.05
6,GGGTGAGGG,1.03
7,GGGTGAGTCC,0.988
8,GGGTGATCTG,1.04
9,GGGTGATTAG,0.958
10,GGGTGATTAT,1
11,GGGTGCCATA,0.979
12,GGGTGCCGCC,0.943
13,GGGTGCCTCT,1.1
14,GGGTGCTACT,0.98
15,GGGTGGGAC,0.987
16,GGGTGGGGA,1.05
17,GGGTGGGGT,0.962
18,GGGTGTACAT,0.994
19,GGGTGTGCAC,1.03
20,GGGTGTGTCC,0.98
21,GGGTTAGACC,1.03
22,GGGTTATGT,0.988
23,GGGTTCCGAC,1.14
24,GGGTTCCTGA,1
25,GGGTTCGTTT,0.984
